This is an account of results in the RNAGym collection of RNA variant scans (doi:10.1093/nar/gkz1192).

The labels stand for the following.
B1: CPEB3 Ribozyme (parent)
chain: UAACAGGGGGCCACAGCAGAAGCGUUCACGUCGCAGCCCCUGUCAGAUUCUGGUGAAUCUGCGAAUUCUGCUGUAUAUCUC

The source gives no read counts; variants with many changes may rest on few reads.

The variants in the data set derive from B1. Nature of the data set: self-cleavage, relative activity (ratio to wild type); higher = more cleavage; in vitro, sequencing. An outline of the steps: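 Relative activity compares each variant's cleaved/total read fraction with that of the unmutated ribozyme. To get these fractions, barcoded CPEB3 ribozyme libraries from rounds of error-prone PCR were transcribed with T7 RNA polymerase for 5 hours at 37°C and then given 15 min of DNase I treatment before EDTA was added. The RNAs were reverse transcribed with template switching and sequenced on Illumina, and DNA sequencing linked barcodes to variants. A minimum of 5 reads applied, and three batches were averaged.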
On to A56G C68A U74A, for which the self-cleavage is 0.41.
C50U A65U U67A: the self-cleavage is 0.21.
The same measure for U48C U72C U78C: 0.88; for U49A U69C U74C: 0.76.
Consider U49C G52U G70C, for which the self-cleavage was 0.17.
In the case of G55C A56G U69C, the self-cleavage amounted to 0.27.
Turning to A56G A57U A77G, the self-cleavage was 0.26.
Next, G53A U72A U74G: 1.1; U51C A65G U72C: 0.75; U51C U72A A75G U80A: 1.17.
As for U58A G63A U67C, the self-cleavage is 0.27.
For A56G U58G U69A U80C, the self-cleavage turned out to be 0.13.
Next, U51A U67C A75U: 0.45; A56U U72C A75U: 0.57.
The same measure for U54C A57G U80C: 0.53; for U49A C50U C62U A64U: 0.26; for A56U A64U A65G: 0.18.
As for A47G U69A U72A, the self-cleavage was 0.34.
Take U48C U51C U66C: the self-cleavage amounted to 0.23.
For U60C U76C A77G, the self-cleavage amounted to 0.68.
Turning to U49A G53C G73U A75U, the self-cleavage was found to be 1.19.
With A47G U67C C68A G73A, the self-cleavage was found to be 0.36.
In the case of U48C U51C A56G U69C, the self-cleavage stood at 0.21.
U54C A65U U72G: the self-cleavage was found to be 0.5.
Turning to U51C U60C U69C, the self-cleavage is 0.36.
U48C G52C A56G: the self-cleavage is 0.48.
Turning to A56G C71G U78C, the self-cleavage was 0.19.
Next, U48C G55C U74C: 0.6; A56U A65G U66C: 0.18.
Turning to A56G U66C C68U, the self-cleavage worked out at 0.12.
Regarding U60C U69A U72C, the self-cleavage was found to be 0.29.
The same measure for U58A U66C U69A: 0.14.
Next, U60C U74C A75U: 0.67; U54G U60C U67A: 0.2.
For U54A U60A C71U, the self-cleavage is 0.49.
The same measure for U58C U72A U74G: 0.42; for C50G U67A U69C: 0.11; for U48A U49C U60A U67C: 0.1.
The same measure for U49A A56G C62U U66C U67A: 0.09; for A57U U69C A77G U78A: 0.63; for U60A U72C C81U: 1.01.
Consider A56G U60C U72A U78C C81A, for which the self-cleavage turned out to be 0.38.
The same measure for U48C U49C A65G: 0.08; for U58A A64U U80C: 0.46; for U48A U54A G63A: 0.32.
U54A U60A U66C A77G U80C: the self-cleavage is 0.26.
On to U54C A57U A64G U69C, for which the self-cleavage was 0.19.
Consider U48G A56G U60A A64G U66A U76A U78C, for which the self-cleavage was 0.06.
The same measure for U60C U76A U80C: 0.73.
Consider U49C U51A U66C, for which the self-cleavage is 0.23.
Consider U54C A56U U60A A64G U78C, for which the self-cleavage turned out to be 0.14.
As to G52U U67C U69C, the self-cleavage was found to be 0.23.
Turning to U49C G70A U80C, the self-cleavage was determined as 0.19.
Next, U48C A56U U67C: 0.23; A57G U58A C62U U72C: 0.3.
A56G U60C U67A U72A: the self-cleavage came out at 0.19.
Next, U49C U51C A65G U80C: 0.1; A56G C68A U72C: 0.27; A56U U66A U69C U72C C79A: 0.32.
For U54A U60C U69C, the self-cleavage was found to be 0.58.
For the variant A56G U58C U67A U74C U78C, the self-cleavage came to 0.3.
Consider G55U U60C U78C, for which the self-cleavage was 0.24.
Next, U54C U60C U72A: 0.4.
Regarding U49C U51C A57U U74A, the self-cleavage was 0.22.
Next, A47U U51C U69A U76A: 0; G52U A56G U78G: 0.75.
Take U51C A57U U58A U69C A77G: the self-cleavage amounted to 0.13.
On to U54A U60C C62U U72A, for which the self-cleavage was 0.45.
As to U58C A64G U74A U78C, the self-cleavage stood at 0.28.
Next, U60A U72C C79A: 0.38; A56G U76C U78A: 1.14; U49C G55A A57G: 0.15.
For the variant U48C U66C U67C U69C U76C, the self-cleavage is 0.09.
On to U51C U60C A64U G70A, for which the self-cleavage was found to be 0.4.
In the case of U58C A64U U69C, the self-cleavage is 0.23.
Next, U51A U67G U76C: 0.32.
The same measure for A57G U58C U76G: 0.23.
The same measure for A57G U58C U76A: 0.34.
On to A56U U69A U72G U76A, for which the self-cleavage amounted to 0.34.
Regarding U54G U66A U72A A77G U78C, the self-cleavage is 0.18.
The same measure for C50A U54C C71A: 0.18; for A57G U58C U78A: 0.51; for C50U U69A U72C: 0.32.
Take U49C U51G U76C: the self-cleavage was 0.35.
For the variant C59U A75G U80C, the self-cleavage amounted to 0.36.
The same measure for U49C G63U U80C: 0.57; for U48C A56G U67A: 0.17.
Next, A56C U60A U69C: 0.17; U54A U58G U76C: 0.15; U60C U69A U78A: 0.33.
Next, A56G A64C U72C U78C: 0.23.
With U54C U58C U60A A65G U80C, the self-cleavage is 0.16.
As for U49C U74C A75G, the self-cleavage was 0.64.
On to G55A A56C A57G, for which the self-cleavage came out at 0.41.
The same measure for A56U U60G U66C U80C: 0.15; for A56U C71U U76A: 0.32; for U58C A64U A77G: 0.17.
Next, U48A U49C U80A: 0.53; U51A C59U A65G: 0.22.
The same measure for U48C A56C C71G: 0.12; for U54C U69A U80G: 0.6.
U60C A65G U78C: the self-cleavage was found to be 0.23.
The same measure for A57G G61U U76C: 0.26; for U51C U54A A56G U60A U69A: 0.3.
Next, U54G U66C U69A: 0.15.
The same measure for U58A A65U U69A: 0.43; for U49A U60A U66C U80G: 0.15.
Regarding U54C U76C U78C U80A, the self-cleavage is 0.7.
Next, U49C U67A U78C: 0.32.
The same measure for U48A U51C C62U: 0.18.
Next, U60C U66C U69C U78C U80C: 0.26; A56U U76A C79A: 0.88; U51C G61C U67C U72A: 0.38.
On to U51A U60A A64U, for which the self-cleavage was 0.24.
As for U49A U51A U54G, the self-cleavage is 0.16.
Next, U54G U66C U74A: 0.4; U51A U58C U67G G70A: 0.23; U51C U66C U76A U80A: 0.62.
Next, G52U A56U U67A A75G: 0.3; U58C U66A U78G U80C: 0.42; U51G U58C U78C: 0.25.
Take U49A U54C U60A C62G: the self-cleavage was 0.17.
Next, A56G U60G U67C: 0.14.
U54C U67A U72C U74C: the self-cleavage was found to be 0.73.
Next, U48C U60A U72C U78C: 0.24.
The same measure for U48C U51C A56G: 0.48; for U49C A75G U78C: 0.09.
Take G52A U72C U78C: the self-cleavage came to 1.09.
Take U49A U78A C81U: the self-cleavage was found to be 1.03.
As to U51A U72A A77G, the self-cleavage worked out at 0.93.
Consider U49C U54A A56G A57G A64G U80C, for which the self-cleavage was found to be 0.24.
With U54C U58C U67A, the self-cleavage came to 0.15.
Next, U48C U72C A75G: 1.04; U49C A56G U72G: 0.5.
With U49C A56G U72A, the self-cleavage was found to be 1.07.
Next, A56C U60A U78G: 0.16; U58C U60C A64G U67A: 0.15; U49C A56G U60C U80A: 0.5.
Consider G52C U54C G55U U60C U80C, for which the self-cleavage was 0.2.
In the case of U51A U69A U80C, the self-cleavage amounted to 0.62.
A56U C68A U69G: the self-cleavage turned out to be 0.12.
The same measure for U51C A57C U60G: 0.25; for U60C A64G U76C: 0.46.
In the case of U58C U67A U72C, the self-cleavage worked out at 0.21.
On to A56U A57G A64U U67C, for which the self-cleavage was determined as 0.27.
In the case of U54A A77C U78C, the self-cleavage came out at 1.08.
Turning to U49C U58A U66C, the self-cleavage is 0.36.
Regarding U48C U54C C68G, the self-cleavage worked out at 0.33.
On to U48C A64U A65U U67A, for which the self-cleavage is 0.2.
As for U49A U51A U67C A77U, the self-cleavage amounted to 0.11.
Next, U51C U60C A64G: 0.15; G53A A65C U78C: 0.13; C50U U54G U60C U69A A75G A77G: 0.04.
Next, A56U G63U U67C U72C: 0.19; C50A U72A U78C U80C: 1.
Turning to U48C A56G A64G, the self-cleavage came to 0.3.
The same measure for U49A U58C U69C: 0.32.
Next, U48C G55U U72C: 0.52; U51C A56G C71U: 0.41; U49C A56U U80A: 0.85.
As for U49A G55A U67C, the self-cleavage came to 0.2.
Next, U51A G52U U54A U60A: 0.49.
On to U49C A57G U67A C68G A75U, for which the self-cleavage was determined as 0.
Regarding U51A A56U C59U A65G, the self-cleavage was 0.21.
The same measure for U48C A56C A64U: 0.05.
As to A56G C68G U72C, the self-cleavage was 0.27.
Next, U49C G52A A56G U60A A64G: 0.41.
